# The supplement of paper PMC9588766
# Counter-ions that a name gives are not always drawn. ± gives the standard deviation of the averaged measurements. The full ranking holds about 2,000 compounds; the median of “cell viability relative to DMSO control (compound alone)” is about 0.98, and the lowest 2% start at about 0.23. The list shows a part of the results.
# Tested on: PDC-DUC18828
# Assay: cell viability relative to DMSO control (compound alone) (fraction); PDC-DUC18828 is a patient-derived cholangiocarcinoma cell line; higher = less growth inhibition
# Conditions: 1 µM; 72 h
# Procedure: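 Selleck Bioactive library screen in the patient-derived FGFR2-G3BP2 fusion-positive ICC cell line PDC-DUC18828 (500 cells/well). Each compound was tested at 1 uM alone, in triplicate, for 72 h. Viability was read by CellTiter-Glo and normalised to plate DMSO controls.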
row,Structure (SMILES),cell viability
1,CNCC[C@H](Oc1cccc2ccccc12)c1cccs1 [Duloxetine HCl],1.12 ± 0.028
2,C[C@@H](Oc1cc(-n2cnc3ccc(CN4CCN(C)CC4)cc32)sc1C(N)=O)c1ccccc1C(F)(F)F,0.325 ± 0.015
3,CC1(COc2ccc3c(c2)ncn3-c2ccc3cccc(N4CCC(N)CC4)c3n2)COC1,1.09 ± 0.064
4,COc1ccccc1-c1cc(Nc2cccc(CS(N)(=O)=O)c2)ncn1,1 ± 0.031
5,COc1ccc([C@H]2CNC(=O)C2)cc1OC1CCCC1 [S- (+)-Rolipram],1.08 ± 0.04
6,COc1cc(Cc2cnc(N)nc2N)cc(OC)c1OC [Trimethoprim],1.04 ± 0.07
7,COc1cc2c(cc1OC)CN(CCc1ccc(NC(=O)c3cc(OC)c(OC)cc3NC(=O)c3cnc4ccccc4c3)cc1)CC2 [Tariquidar],1.08 ± 0.062
8,CC(=O)c1cc([N+](=O)[O-])c(Sc2cccc(Cl)c2Cl)s1,1.08 ± 0.025
9,CS(=O)(=O)c1ccc(C2=C(c3ccccc3)C(=O)OC2)cc1 [Rofecoxib],0.934 ± 0.056
10,Cn1c(=O)c2[nH]cnc2n(C)c1=O [Aminophylline],1.03 ± 0.028
11,Cc1[nH]c(=O)c(C#N)cc1-c1ccncc1 [Milrinone],1.06 ± 0.033
12,CC(C)[C@H](CO)Nc1nc(Nc2cccc(Cl)c2)c2ncn(C(C)C)c2n1 [Purvalanol A],0.936 ± 0.023
13,Cc1ccnc2c1NC(=O)c1cccnc1N2C1CC1 [Nevirapine],1.05 ± 0.012
14,CN(C)CCC=C1c2ccccc2CCc2ccccc21 [Amitriptyline HCl],0.934 ± 0.056
15,FC(F)(F)c1ccc(CNc2ccc(Cc3c[nH]c4ncc(Cl)cc34)cn2)cn1 [Pexidartinib (PLX3397)],0.951 ± 0.035
16,O=C(Nc1ccccc1)c1ccccc1O [Salicylanilide],1.08 ± 0.045
17,COc1cc(/C=C/C(=O)N2CCC=CC2=O)cc(OC)c1OC [Piperlongumine],0.834 ± 0.028
18,Cc1cccc(C)c1NC(=O)C1CCCCN1C (stereo not drawn) [Mepivacaine HCl],1.02 ± 0.019
19,CCc1nc(-c2cccc(C)c2)c(-c2ccnc(NC(=O)c3ccccc3)c2)s1,0.946 ± 0.029
20,Cc1ncc([N+](=O)[O-])n1CC(O)CCl (stereo not drawn) [Ornidazole],0.979 ± 0.042
21,CN1C(C(=O)Nc2ccccn2)=C(O)c2sccc2S1(=O)=O [Tenoxicam],0.944 ± 0.026
22,N=C(N)N [Guanidine HCl],1.02 ± 0.022
23,Cc1c(C(N)=O)cc([N+](=O)[O-])cc1[N+](=O)[O-] [Dinitolmide],1.03 ± 0.06
24,NS(=O)(=O)c1cc(C(=O)O)c(NCc2ccco2)cc1Cl [Furosemide],1.04 ± 0.027
25,O=C(O)c1cc(=O)c2ccccc2o1 [Chromocarb],0.918 ± 0.028
26,CCOc1cc([C@@H](CS(C)(=O)=O)N2C(=O)c3cccc(NC(C)=O)c3C2=O)ccc1OC,1 ± 0.016
27,COc1cc(C(=O)NS(=O)(=O)c2ccccc2C)ccc1Cc1cn(C)c2ccc(NC(=O)OC3CCCC3)cc12 [Zafirlukast],1.05 ± 0.028

row,Structure (SMILES),cell viability
1,CN[C@H]1CN(c2ccc3c(=O)c(C(=O)O)cn(-c4nccs4)c3n2)C[C@@H]1OC [Voreloxin (SNS-595)],0.735 ± 0.011
2,CC1=C(C(=O)OC(C)C)C(c2cccc([N+](=O)[O-])c2)C(C(=O)OC2CN(C(c3ccccc3)c3ccccc3)C2)=C(N)N1 (stereo not drawn) [Azelnidipine],0.978 ± 0.034
3,Cc1cc(C2CCCCC2)n(O)c(=O)c1 [Ciclopirox],0.7 ± 0.0091
4,Cc1cc(C2CCCCC2)n(O)c(=O)c1 [Ciclopirox ethanolamine],0.587 ± 0.046
5,CCc1cncnc1N1CCN(Cc2nc3ccc(C(F)(F)F)cc3[nH]2)CC1,0.959 ± 0.015
6,NCC(=O)Nc1ccc(-n2nc(C(F)(F)F)cc2-c2ccc3c(ccc4ccccc43)c2)cc1,0.966 ± 0.037
7,COc1ccc(-c2nc3cc(C4=NNC(=O)CC4C)ccc3[nH]2)cc1 (stereo not drawn) [Pimobendan],1.01 ± 0.031
8,CNS(=O)(=O)Cc1ccc2[nH]cc(CCN(C)C)c2c1 [Sumatriptan Succinate],1.01 ± 0.0021
9,O=C(COc1ccc(Cl)cc1)NC1CCC(NC(=O)COc2ccc(Cl)cc2)CC1 (stereo not drawn) [ISRIB (trans-isomer)],1.11 ± 0.02
10,COc1cc2ncnc(Oc3cccc(NC(=O)Nc4cc(C(C)(C)C(F)(F)F)on4)c3)c2cc1OC,1.06 ± 0.064
11,O=c1c(O)c(-c2ccc(O)c(O)c2)oc2cc(O)ccc12 [Fisetin],0.994 ± 0.044
12,NS(=O)(=O)c1cc2c(cc1Cl)N=CNS2(=O)=O [Chlorothiazide],0.962 ± 0.014
13,COc1ccc(-c2cnc3c(-c4cccc5ncccc45)cnn3c2)cc1,0.8803 ± 0.008
14,O=C(NCc1ccncc1)C12CC3CC(C1)CC(c1ccc(Cl)cc1)(C3)C2,0.951 ± 0.016
15,CCOC(=O)[C@H](CCc1ccccc1)N[C@@H](C)C(=O)N1[C@H](C(=O)O)C[C@@H]2CCC[C@@H]21 [Ramipril],0.923 ± 0.056
16,NC(=O)c1ncn([C@@H]2O[C@H](CO)[C@@H](O)[C@H]2O)n1 [Ribavirin],1.024 ± 0.0053
17,Cc1ccc(S(=O)(=O)n2c(N)nc3ccccc32)cc1 [ML130 (Nodinitib-1)],0.946 ± 0.021
18,CC[C@H]1OC(=O)[C@H](C)[C@@H](O[C@H]2C[C@@](C)(OC)[C@@H](O)[C@H](C)O2)[C@H](C)[C@@H](O[C@@H]2O[C@H](C)C[C@H](N(C)C)[C@H]2O)[C@](C)(OC)C[C@@H](C)C(=O)[C@H](C)[C@@H](O)[C@]1(C)O [Clarithromycin],1.04 ± 0.084
19,O=[N+]([O-])c1ccc2c(c1)S(=O)(=O)C=C2 [Stattic],0.671 ± 0.038
20,CCCCCCCCC/C(=C\C1=C(C)C(=O)C(OC)=C(OC)C1=O)C(=O)O,1.01 ± 0.059
21,CN(C)CC[C@H](CSc1ccccc1)Nc1ccc(S(=O)(=O)NC(=O)c2ccc(N3CCN(Cc4ccccc4-c4ccc(Cl)cc4)CC3)cc2)cc1[N+](=O)[O-],0.829 ± 0.011
22,NC(=O)Cc1cccc(C(=O)c2ccccc2)c1N [Nepafenac],0.917 ± 0.026
23,C[C@H]1COC2=C1C(=O)C(=O)c1c2ccc2c1CCCC2(C)C [Cryptotanshinone],0.8422 ± 0.0054
24,Nc1ccccc1NC(=O)c1ccc(CNC(=O)OCc2cccnc2)cc1 [Entinostat (MS-275)],1.07 ± 0.025
25,CCCCOc1c(C(=O)c2c(F)cc(C)cc2F)c[nH]c2nncc1-2,0.852 ± 0.0069
26,CC(C)C[C@@H]1NC(=O)[C@@H](C(C)C)NC(=O)[C@@H]2CCCN2C(=O)[C@@H](CC(=O)O)NC(=O)[C@@H](Cc2c[nH]c3ccccc23)NC1=O,1.03 ± 0.033
